Laboratory results published in PubChem BioAssay AID720647 (Broad Institute, 2013).
Among all 380,000 compounds or so, about 1,300 (0.34%) were called active. The inconclusive results got no clear call from the source; some entries with a clear call stand among them for comparison.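 The calls were made as follows: active = drop in luminescence signal, shown as inhibition above about 50% in the replicate tests (limit read from the data, passing the limit was not always enough); inconclusive = probably only some replicates passing the limit; inactive = the rest.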

system: Drosophila bursicon receptor LGR2 (rickets); assay: inhibitors of bursicon-induced LGR2 CRE-luciferase signal, primary screen, cell-based, HEK293, CRE-luciferase reporter, bursicon stimulation (AID 720647); conditions: bursicon-stimulated, 4 h, at 9.99 µM, active compounds read high;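 also: agonist challenge used bursicon conditioned medium at about half maximal strength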

Compound	inhibition
COc1ccc(CN2C(=O)[C@H]3Cc4c([nH]c5ccccc45)C(C)(C)N3C2=O)cc1	inconclusive: 50.9%
O=C(Nc1ccc(Cl)cc1Cl)c1ccc2c(c1)OCCO2	inconclusive: 73.8%
O=C(Nc1ccc(S(=O)(=O)N2CCOCC2)cc1)c1cc(-c2cc(Cl)ccc2O)n[nH]1	inconclusive: 47.7%
O=C(Cn1ccc(C(F)(F)F)n1)Nc1cccc(S(=O)(=O)N2CCCCC2)c1	inactive: 9.12%
O=C(CCNC(=O)c1ccc(Br)cc1)NNC(=O)COc1ccccc1F	inconclusive: -3.01%
CCc1ccc2oc(-c3ccc(OC)cc3)cc(=Nc3c(C)n(C)n(-c4ccccc4)c3=O)c2c1	active: 82.8%
COc1ccc(S(=O)(=O)Nc2ccc3c(c2)C(=O)N([C@H](C)CO)C[C@H](C)[C@H](CN(C)S(=O)(=O)c2ccc(F)cc2)OCCCC[C@@H](C)O3)cc1	inconclusive: -3.47%
CCOc1ccc(NC(=S)N=Nc2c(O)[nH]c3ccccc23)cc1	inconclusive: 12.4%
O=C(CSc1nc(C2CCCCC2)nc2ccccc12)N1CCCC1	inconclusive: 11.9%
CCn1c(SCC(=O)Nc2nc3ccc(OC)cc3s2)nc2c1c(=O)n(C)c(=O)n2C	active: 54.5%
Cc1cc(C(=O)CN2C(=O)c3ccccc3S2(=O)=O)c(C)n1C(C)C	active: 75.8%
CC1(C)CC(=O)C=C(c2ccc(F)cc2OCc2ccccc2)C1	inconclusive: 16.9%
C[C@@H]1CN([C@@H](C)CO)C(=O)c2cc(C#Cc3cccc(F)c3)cnc2O[C@@H]1CN(C)C(=O)C1CCC1	inactive: 0.472%
Cc1ccc(-n2cc(CN(C)Cc3nccn3C)c(-c3cccc(C)c3)n2)cc1	inconclusive: -9.29%
Cc1ccc(-c2nnc(-c3ccccc3Br)o2)cc1	inconclusive: 46.2%
O=C(O)c1ccc(CNC(=O)c2ccccc2NC(=O)c2cccc([N+](=O)[O-])c2)cc1	inconclusive: 51%
Cc1cc(N2CCN(C(=O)OC(C)(C)C)C[C@H]2C)ccc1N1C[C@@H](C)O[C@@H](C)C1	inconclusive: 50.2%
CCC(=O)Nc1cc2nn(-c3ccc(OC)cc3)nc2cc1C	inconclusive: 65.8%
CCOC(=O)N1CCN(C(=O)c2ccc(Cn3c(=S)[nH]c4cc(OCC)c(OCC)cc4c3=O)cc2)CC1	inconclusive: 46.9%
COc1cc(C(C2=C(O)CC(C)(C)CC2=O)C2C(=O)CC(C)(C)CC2=O)cc(OC)c1OC (stereo not given)	inconclusive: 18.6%
Cc1ccccc1S(=O)(=O)N1C[C@@H]2N[C@H](C1)C2c1ccc(-c2cccc(C#N)c2)cc1 (stereo not given in full)	inconclusive: 44.5%
CO[C@@H]1CN(C)C(=O)c2cc(NC(=O)NC3CCCCC3)ccc2OC[C@H](C)N(CC2CCOCC2)C[C@@H]1C	inactive: -7%
O=C(Nc1ccccc1Cc1ccccc1)c1ccccc1NS(=O)(=O)c1ccc(Cl)s1	inconclusive: 54%
O=S(=O)(c1ccc(NC(=S)NN=Cc2ccccc2O)cc1)N1CCCCC1	inconclusive: 53.1%
O=S(=O)(CCSc1nc2ccccc2o1)c1nc2ccccc2s1	inconclusive: 58.6%
CCOc1ccc(OCCC(=O)OCC(=O)N2CCN(S(=O)(=O)c3ccc(Cl)cc3)CC2)cc1	inactive: 24%
COc1cc2sc(-c3ccccc3OC)c(-c3ccc(OCCN4CCCCC4)cc3)c2cc1OC	inconclusive: 45.8%

Compound	inhibition
C=C1C(=O)O[C@@H]2C[C@@H](C)[C@@H]3C=CC(=O)[C@@]3(C)[C@@H](OC(C)=O)[C@H]12	active: 103%
O=C(c1ccccc1)c1ccc2nc(N3CCCCC3)c3nncn3c2c1	inconclusive: 61.5%
COc1ccc2c(c1)c1nc3n(c(=O)c1n2CC(=O)Nc1cc(C)[nH]n1)CCS3	inconclusive: 48.9%
CC1=NN(c2ccccc2)C(=O)/C1=C\C=C1/N(C)c2ccccc2C1(C)C	inactive: 18.3%
C/C(CCc1ccccc1)=N\NC(=O)C(=O)Nc1cccc(Cl)c1	inactive: 1.93%
CCC(=O)Nc1ccc2c(c1)C(=O)N(C)[C@H]1CC[C@@H](CC(=O)N[C@@H](C)c3ccccc3)O[C@H]1CO2	inactive: -7.93%
CCN(C(=O)c1ccc2c(Cl)c3c(nc2c1)CCC3)c1ccc(C)c(C)c1	inactive: 29.1%
O=C(N/N=C/c1cn(-c2ccccc2)nc1-c1cc2ccccc2o1)c1cccnc1	inconclusive: 44.4%
COC(=O)c1c(NC(=O)COC(=O)c2ccc(C)s2)sc2c1CCCCC2	inactive: 16.2%
COc1ccc(S(=O)(=O)N(C)C[C@@H]2OCCCC[C@H](C)Oc3ccc(NS(=O)(=O)c4ccc(F)cc4)cc3C(=O)N([C@@H](C)CO)C[C@@H]2C)cc1	inconclusive: 65%
COc1ccc(C(=O)C(CCC(CNC(C)(C)C)C(=O)c2ccc(OC)cc2)CNC(C)(C)C)cc1 (stereo not given)	inconclusive: 48%
O=C(C[C@H]1CC[C@H](NS(=O)(=O)c2cccc(F)c2)[C@@H](CO)O1)N1CCCCC1	inconclusive: -25%
CCCCOC(=O)C1=C(C)NC(=O)NC1c1ccc2c(c1)OCO2 (stereo not given)	inactive: -0.877%
COc1ccc(-c2noc(CCC(=O)N3CCN(c4ccc(Cl)cc4)CC3)n2)cc1	inconclusive: 52.9%
O=C(NC1=C(NC2CCS(=O)(=O)C2)C(=O)c2ccccc2C1=O)c1ccccc1 (stereo not given)	active: 78%
C/C=C/c1cnc2c(c1)C(=O)N([C@H](C)CO)C[C@H](C)[C@H](CN(C)C(=O)C1CCC1)O2	inactive: 5.65%
NC(=O)N/N=C/c1c(Sc2nnnn2-c2ccccc2)nc2ccccn2c1=O	inconclusive: 53.9%
O=C(O)c1ccc(N/N=C/c2ccc3c(c2)OCO3)cc1	active: 101%
C#CCN(C[C@@H]1[C@@H](OC(=O)NCCCCCC)[C@@H](OC(=O)NCCCCCC)Cn2c(=O)ccc(=O)n21)S(=O)(=O)c1ccc(C)cc1	inconclusive: 50.8%
CSC(=S)NN=C(C)c1cccc(C)n1	inconclusive: 26.7%
C[C@H](O)C#Cc1ccc2c(c1)O[C@@H](CN(C)C(=O)c1ccccc1)[C@H](C)CN([C@H](C)CO)S2(=O)=O	inactive: 2.43%
O=C(O)c1ccc(NC2=C/C(=N/S(=O)(=O)c3cccs3)c3ccccc3C2=O)cc1	inconclusive: 77%
CC(C)C[C@@H](CN1CCC[C@@H]1CN1C(=O)C(=O)NC[C@@H]1Cc1ccccc1)N1C[C@H](Cc2ccccc2)N(CC2CCCCCC2)C(=O)C1=O	inconclusive: 51.7%
COCCN(CC(=O)NC1CCCCC1)C(=O)/C=C/C(=O)c1ccc(OC)cc1O	inconclusive: 51.8%
COc1ccc(CN(C)C[C@H]2Oc3ccc(NC(=O)Cc4ccccc4)cc3CC(=O)N([C@H](C)CO)C[C@@H]2C)cc1	inactive: -7.38%
O=c1c2c(nc3cc(-c4ccc(F)cc4)[nH]n13)CCCC2	inconclusive: 62.5%
Cc1ccc(C)c(NC(=S)Nc2cccc3cnccc23)c1	inconclusive: 15%

Compound	inhibition
COc1ccc(C(=O)NC(=S)N2CCCCC2)cc1	inactive: -13.9%
COc1cc(C(c2c(C)[nH][nH]c2=O)c2c(C)[nH][nH]c2=O)cc([N+](=O)[O-])c1O	inconclusive: 10.4%
CCOC(=O)C(C)n1cnc2c(nnn2-c2ccc(OC)cc2)c1=O (stereo not given)	inconclusive: 16.7%
Cc1ccc(-c2ccc3c(c2)O[C@H](CN(C)Cc2ccncc2)[C@@H](C)CN([C@H](C)CO)S3(=O)=O)cc1	inactive: -6.06%
Cc1c(/C(O)=C2/C(=O)C(=O)N(CCN3CCOCC3)C2c2ccccn2)cnn1-c1ccccc1 (stereo not given)	active: 79.6%
Cc1ccc(OCCCCCCN2CCNCC2)c(Br)c1	inconclusive: 42.3%
CC1=NNC(=O)/C1=C\c1cn(-c2ccccc2)nc1-c1ccccc1	active: 106%
Cc1ccc2nc(-c3ccc(NC(=O)COC(=O)c4ccc([N+](=O)[O-])o4)cc3)sc2c1	active: 82.6%
CCCCCn1c(=O)[nH]c2cc(C(=O)NC3CCN(Cc4ccccc4)CC3)ccc2c1=O	inactive: -6.53%
O=c1[nH]c2cc([N+](=O)[O-])ccc2c2ccccc12	inactive: -10.8%
C[C@H](CO)N1C[C@H](C)[C@H](CN(C)Cc2ccc(Oc3ccccc3)cc2)Oc2ccc(NC(=O)CCCCCC(=O)Nc3ccccc3N)cc2CC1=O	inactive: 0.866%
O=C(O)c1cccc(N(CCO)CCO)c1	inconclusive: 1.57%
Cc1cc(C)c2cc(CN(CC3CCCO3)C(=S)NCc3ccco3)c(=O)[nH]c2c1 (stereo not given)	inconclusive: 16.6%
COc1ccc(N=C2S/C(=C\c3ccc(Cl)c([N+](=O)[O-])c3)C(=O)N2CCN(C)C)cc1	inconclusive: 51%
Cc1ccc(/C=C2/NC(=O)[C@H](C)NC2=O)cc1	inconclusive: -10.4%
CC(=O)N(C)C[C@@H]1Oc2ncc(-c3ccccc3F)cc2C(=O)N([C@@H](C)CO)C[C@H]1C	inactive: -26.3%
COc1ccc(/C=N/NC(=S)Nc2cccc(C(=O)O)c2)cc1OC	active: 82.2%
O=C1/C(=C/c2cccc(Br)c2)SC(=S)N1CCC(=O)N(CCO)c1ccccc1	inconclusive: 51.4%
C[C@H]1CN([C@@H](C)CO)C(=O)Cc2cc(NC(=O)Nc3ccc(F)cc3)ccc2O[C@H]1CN(C)CC1CCCCC1	inconclusive: 16.4%
Oc1ccc(CCc2ccccn2)cc1	inconclusive: 54.4%
CN(C)/C=N/c1nc2ncc(-c3ccc(Cl)cc3)c(/N=C/N(C)C)n2n1	inconclusive: 63%
Cc1cccc(N(C(=O)c2nsc(Cl)c2Cl)C(C(=O)NC2CCCC2)c2ccc(O)cc2)c1C (stereo not given)	inconclusive: 30.4%
COc1ccccc1CNS(=O)(=O)c1ccc(N2CCCC2)cc1Br	inconclusive: 52.9%
CC1=CC(C)(C)N2C(=O)C3(C(C#N)=C(N)Oc4cc(O)ccc43)c3c(C)c(C)cc1c32 (stereo not given)	inconclusive: 52.7%
COc1ccc(CN(C)C[C@H]2Oc3ccc(NC(=O)C4CC4)cc3CC(=O)N([C@H](C)CO)C[C@@H]2C)cc1	inactive: 7.51%
COc1ccc(S(=O)(=O)N(C)C[C@@H]2OCCCC[C@H](C)Oc3ccc(NS(=O)(=O)c4ccc(Cl)cc4)cc3C(=O)N([C@@H](C)CO)C[C@@H]2C)cc1	inconclusive: 51.9%
